These are yes or no findings as the source states them, for the method shown. Some binding calls cover weakened binding; strength is not graded here. Tags and fused reporters may be left off the sequences shown.

Assay [1] addresses T1, INCURVATA 11 (ICU11), yeast two-hybrid fusion (Arabidopsis thaliana) (UniProt Q3ED68).
T1 sequence: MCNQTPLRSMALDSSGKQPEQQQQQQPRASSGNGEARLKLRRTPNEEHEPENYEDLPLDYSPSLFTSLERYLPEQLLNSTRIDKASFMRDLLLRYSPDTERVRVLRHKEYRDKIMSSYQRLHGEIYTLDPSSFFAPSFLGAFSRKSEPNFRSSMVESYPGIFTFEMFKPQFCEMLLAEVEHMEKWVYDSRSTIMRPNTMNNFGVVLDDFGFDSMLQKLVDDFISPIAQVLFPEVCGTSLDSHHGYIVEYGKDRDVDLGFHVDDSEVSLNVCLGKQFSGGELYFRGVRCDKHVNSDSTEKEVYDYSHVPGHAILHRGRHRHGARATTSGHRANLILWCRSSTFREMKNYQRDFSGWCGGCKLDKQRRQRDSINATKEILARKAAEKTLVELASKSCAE
Description: two-hybrid; pGADT7 and pGBKT7 fusions, strains AH109 and Y187 mated; growth on SD-LWH with 0 or 3 mM 3-AT.

For assay [2], the target named is T2, NAC052, yeast two-hybrid fusion (Arabidopsis thaliana), Q9SQY0.
T2 chain: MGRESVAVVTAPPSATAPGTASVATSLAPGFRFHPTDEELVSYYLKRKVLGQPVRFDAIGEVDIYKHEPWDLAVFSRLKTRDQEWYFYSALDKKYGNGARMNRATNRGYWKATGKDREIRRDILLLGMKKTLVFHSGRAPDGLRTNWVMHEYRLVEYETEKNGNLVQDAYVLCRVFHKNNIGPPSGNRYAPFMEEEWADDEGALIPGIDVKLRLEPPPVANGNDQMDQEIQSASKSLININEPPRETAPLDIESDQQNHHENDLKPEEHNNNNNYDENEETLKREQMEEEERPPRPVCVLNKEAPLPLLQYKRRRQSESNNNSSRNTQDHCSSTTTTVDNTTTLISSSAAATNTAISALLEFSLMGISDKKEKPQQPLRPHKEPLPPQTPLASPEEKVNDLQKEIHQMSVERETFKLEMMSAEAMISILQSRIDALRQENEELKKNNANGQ
Described as above. The settings on record: remark: other sources report otherwise.

Assay [3] concerns the target JMJ14-Flag, recombinant (Arabidopsis thaliana), Q8GUI6. Put plainly: pull-down; purified proteins mixed in GST-tag lysis buffer (20 mM Tris-HCl pH 7.5, 150 mM NaCl, 1 mM DTT) at 4 °C for 1 h, then GST or MBP beads; immunoblot with GST, MBP or His antibody; both purified. To be noted: remark: other sources report otherwise. On the technique in general: In western blotting, separated proteins are transferred to a membrane and probed.

In assay [4] the target is T3, NAC050, yeast two-hybrid fusion (Arabidopsis thaliana), Q9SQX9.
T3 chain: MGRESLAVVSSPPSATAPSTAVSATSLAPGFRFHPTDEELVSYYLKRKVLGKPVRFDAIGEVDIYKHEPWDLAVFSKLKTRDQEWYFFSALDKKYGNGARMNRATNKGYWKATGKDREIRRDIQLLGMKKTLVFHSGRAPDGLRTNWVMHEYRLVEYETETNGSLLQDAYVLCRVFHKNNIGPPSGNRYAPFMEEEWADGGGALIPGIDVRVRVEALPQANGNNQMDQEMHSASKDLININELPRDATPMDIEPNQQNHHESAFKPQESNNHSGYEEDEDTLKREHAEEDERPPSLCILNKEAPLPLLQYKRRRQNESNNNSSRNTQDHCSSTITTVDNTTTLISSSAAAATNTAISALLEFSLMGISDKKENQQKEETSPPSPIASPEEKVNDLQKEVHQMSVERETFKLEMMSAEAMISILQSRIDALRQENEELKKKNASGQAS
Description: two-hybrid; pGADT7 and pGBKT7 fusions, strains AH109 and Y187 mated; growth on SD-LWH with 0 or 3 mM 3-AT. To be noted: remark: other sources report otherwise.

The target of assay [5] is T4, NAC050-MBP, recombinant (Arabidopsis thaliana) (UniProt Q9SQX9).
T4 sequence: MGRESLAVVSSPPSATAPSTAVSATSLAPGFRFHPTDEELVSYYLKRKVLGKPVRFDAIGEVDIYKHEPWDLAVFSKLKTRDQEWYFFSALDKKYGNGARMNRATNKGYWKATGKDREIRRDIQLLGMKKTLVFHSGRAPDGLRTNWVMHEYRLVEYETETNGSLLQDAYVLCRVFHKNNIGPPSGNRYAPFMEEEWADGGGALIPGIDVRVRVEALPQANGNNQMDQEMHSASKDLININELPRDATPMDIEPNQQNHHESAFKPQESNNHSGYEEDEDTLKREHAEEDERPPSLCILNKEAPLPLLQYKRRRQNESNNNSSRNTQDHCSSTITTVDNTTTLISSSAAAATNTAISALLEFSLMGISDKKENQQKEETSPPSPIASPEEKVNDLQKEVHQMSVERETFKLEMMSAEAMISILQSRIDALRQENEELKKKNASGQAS
Description: pull-down; purified proteins mixed in GST-tag lysis buffer (20 mM Tris-HCl pH 7.5, 150 mM NaCl, 1 mM DTT) at 4 °C for 1 h, then GST or MBP beads; immunoblot with GST, MBP or His antibody; both purified.

Assay [6] concerns the target T4, NAC050-MBP, recombinant (Arabidopsis thaliana). Put plainly: SEC; purified proteins mixed in equivalent molar amounts, 4 °C overnight, Superose 6 10/300GL; fractions detected by immunoblotting (GST, FLAG, MBP, HIS); both purified.

B1: TRB1, yeast two-hybrid fusion (protein, UniProt Q8VWK4 1-300)
chain: MGAPKQKWTQEEESALKSGVIKHGPGKWRTILKDPEFSGVLYLRSNVDLKDKWRNMSVMANGWGSREKSRLAVKRTFSLPKQEENSLALTNSLQSDEENVDATSGLQVSSNPPPRRPNVRLDSLIMEAIATLKEPGGCNKTTIGAYIEDQYHAPPDFKRLLSTKLKYLTSCGKLVKVKRKYRIPNSTPLSSHRRKGLGVFGGKQRTSSLPSPKTDIDEVNFQTRSQIDTEIARMKSMNVHEAAAVAAQAVAEAEAAMAEAEEAAKEAEAAEAEAEAAQAFAEEASKTLKGRNICKMMIRA
For the molecule B1, in assay [1], the binding result is given as “binds”.

B2: TRB1, yeast two-hybrid fusion, Q8VWK4 1-300 (protein)
chain: MGAPKQKWTQEEESALKSGVIKHGPGKWRTILKDPEFSGVLYLRSNVDLKDKWRNMSVMANGWGSREKSRLAVKRTFSLPKQEENSLALTNSLQSDEENVDATSGLQVSSNPPPRRPNVRLDSLIMEAIATLKEPGGCNKTTIGAYIEDQYHAPPDFKRLLSTKLKYLTSCGKLVKVKRKYRIPNSTPLSSHRRKGLGVFGGKQRTSSLPSPKTDIDEVNFQTRSQIDTEIARMKSMNVHEAAAVAAQAVAEAEAAMAEAEEAAKEAEAAEAEAEAAQAFAEEASKTLKGRNICKMMIRA
On to B2, for which the binding result in assay [2] is given as “no binding”.

B3: TRB1-His, recombinant, Q8VWK4 1-300 (protein)
chain: MGAPKQKWTQEEESALKSGVIKHGPGKWRTILKDPEFSGVLYLRSNVDLKDKWRNMSVMANGWGSREKSRLAVKRTFSLPKQEENSLALTNSLQSDEENVDATSGLQVSSNPPPRRPNVRLDSLIMEAIATLKEPGGCNKTTIGAYIEDQYHAPPDFKRLLSTKLKYLTSCGKLVKVKRKYRIPNSTPLSSHRRKGLGVFGGKQRTSSLPSPKTDIDEVNFQTRSQIDTEIARMKSMNVHEAAAVAAQAVAEAEAAMAEAEEAAKEAEAAEAEAEAAQAFAEEASKTLKGRNICKMMIRA
With B3, the binding entry in assay [3] is “no binding”.

B4: TRB2, yeast two-hybrid fusion (protein, UniProt Q9FJW5 1-299)
chain: MGAPKQKWTPEEEAALKAGVLKHGTGKWRTILSDTEFSLILKSRSNVDLKDKWRNISVTALWGSRKKAKLALKRTPPGTKQDDNNTALTIVALTNDDERAKPTSPGGSGGGSPRTCASKRSITSLDKIIFEAITNLRELRGSDRTSIFLYIEENFKTPPNMKRHVAVRLKHLSSNGTLVKIKHKYRFSSNFIPAGARQKAPQLFLEGNNKKDPTKPEENGANSLTKFRVDGELYMIKGMTAQEAAEAAARAVAEAEFAITEAEQAAKEAERAEAEAEAAQIFAKAAMKALKFRIRNHPW
As to B4, the binding entry in assay [1] is given as “binds”.

B5: TRB2, yeast two-hybrid fusion, Q9FJW5 1-299 (protein)
chain: MGAPKQKWTPEEEAALKAGVLKHGTGKWRTILSDTEFSLILKSRSNVDLKDKWRNISVTALWGSRKKAKLALKRTPPGTKQDDNNTALTIVALTNDDERAKPTSPGGSGGGSPRTCASKRSITSLDKIIFEAITNLRELRGSDRTSIFLYIEENFKTPPNMKRHVAVRLKHLSSNGTLVKIKHKYRFSSNFIPAGARQKAPQLFLEGNNKKDPTKPEENGANSLTKFRVDGELYMIKGMTAQEAAEAAARAVAEAEFAITEAEQAAKEAERAEAEAEAAQIFAKAAMKALKFRIRNHPW
With B5, the binding entry in assay [2] and in assay [4] was “no binding” each time.

B6: TRB3, yeast two-hybrid fusion (protein, UniProt Q9M2X3 1-295)
chain: MGAPKLKWTPEEETALKAGVLKHGTGKWRTILSDPVYSTILKSRSNVDLKDKWRNISVTALWGSRKKAKLALKRTPLSGSRQDDNATAITIVSLANGDVGGQQIDAPSPPAGSCEPPRPSTSVDKIILEAITSLKRPFGPDGKSILMYIEENFKMQPDMKRLVTSRLKYLTNVGTLVKKKHKYRISQNYMAEGEGQRSPQLLLEGNKENTPKPEENGVKNLTKSQVGGEVMIMGMTEKEAAAAAARAVAEAEFAMAEAEEAAREADKAEAEAEAAHIFAKAAMKAVKYRMHSQTR
Regarding B6, the binding result in assay [1] is reported as “binds”.

B7: TRB3, yeast two-hybrid fusion, Q9M2X3 1-295 (protein)
chain: MGAPKLKWTPEEETALKAGVLKHGTGKWRTILSDPVYSTILKSRSNVDLKDKWRNISVTALWGSRKKAKLALKRTPLSGSRQDDNATAITIVSLANGDVGGQQIDAPSPPAGSCEPPRPSTSVDKIILEAITSLKRPFGPDGKSILMYIEENFKMQPDMKRLVTSRLKYLTNVGTLVKKKHKYRISQNYMAEGEGQRSPQLLLEGNKENTPKPEENGVKNLTKSQVGGEVMIMGMTEKEAAAAAARAVAEAEFAMAEAEEAAREADKAEAEAEAAHIFAKAAMKAVKYRMHSQTR
Regarding B7, the binding entry in assay [2] and in assay [4] was “no binding” throughout.

B8: ICU11, recombinant, GST- or MBP-tagged (pull-down) (protein, UniProt Q3ED68 1-397)
chain: MCNQTPLRSMALDSSGKQPEQQQQQQPRASSGNGEARLKLRRTPNEEHEPENYEDLPLDYSPSLFTSLERYLPEQLLNSTRIDKASFMRDLLLRYSPDTERVRVLRHKEYRDKIMSSYQRLHGEIYTLDPSSFFAPSFLGAFSRKSEPNFRSSMVESYPGIFTFEMFKPQFCEMLLAEVEHMEKWVYDSRSTIMRPNTMNNFGVVLDDFGFDSMLQKLVDDFISPIAQVLFPEVCGTSLDSHHGYIVEYGKDRDVDLGFHVDDSEVSLNVCLGKQFSGGELYFRGVRCDKHVNSDSTEKEVYDYSHVPGHAILHRGRHRHGARATTSGHRANLILWCRSSTFREMKNYQRDFSGWCGGCKLDKQRRQRDSINATKEILARKAAEKTLVELASKSCAE
In the case of B8, the binding entry in assay [5] was “binds”.

B9: ICU11, recombinant, GST- or MBP-tagged (pull-down), Q3ED68 1-397 (protein)
chain: MCNQTPLRSMALDSSGKQPEQQQQQQPRASSGNGEARLKLRRTPNEEHEPENYEDLPLDYSPSLFTSLERYLPEQLLNSTRIDKASFMRDLLLRYSPDTERVRVLRHKEYRDKIMSSYQRLHGEIYTLDPSSFFAPSFLGAFSRKSEPNFRSSMVESYPGIFTFEMFKPQFCEMLLAEVEHMEKWVYDSRSTIMRPNTMNNFGVVLDDFGFDSMLQKLVDDFISPIAQVLFPEVCGTSLDSHHGYIVEYGKDRDVDLGFHVDDSEVSLNVCLGKQFSGGELYFRGVRCDKHVNSDSTEKEVYDYSHVPGHAILHRGRHRHGARATTSGHRANLILWCRSSTFREMKNYQRDFSGWCGGCKLDKQRRQRDSINATKEILARKAAEKTLVELASKSCAE
For the molecule B9, the binding entry in assay [3] is “no binding”.

B10: ICU11-GST, recombinant (gel filtration) (protein, UniProt Q3ED68 1-397)
chain: MCNQTPLRSMALDSSGKQPEQQQQQQPRASSGNGEARLKLRRTPNEEHEPENYEDLPLDYSPSLFTSLERYLPEQLLNSTRIDKASFMRDLLLRYSPDTERVRVLRHKEYRDKIMSSYQRLHGEIYTLDPSSFFAPSFLGAFSRKSEPNFRSSMVESYPGIFTFEMFKPQFCEMLLAEVEHMEKWVYDSRSTIMRPNTMNNFGVVLDDFGFDSMLQKLVDDFISPIAQVLFPEVCGTSLDSHHGYIVEYGKDRDVDLGFHVDDSEVSLNVCLGKQFSGGELYFRGVRCDKHVNSDSTEKEVYDYSHVPGHAILHRGRHRHGARATTSGHRANLILWCRSSTFREMKNYQRDFSGWCGGCKLDKQRRQRDSINATKEILARKAAEKTLVELASKSCAE
For B10, the binding result in assay [6] is given as “binds”.

Values taken from paper PMC12713088.
